In the supplement of paper PMC11369174, “Proteome-scale characterisation of motif-based interactome rewiring by disease mutations” (Molecular Systems Biology, 2024):
The list shows a part of the results. Values come from read counts of a selection and are noisy.

Target: T1, ZMYND11_coiled-coil-MYND__Q15326_480_602
T1 chain: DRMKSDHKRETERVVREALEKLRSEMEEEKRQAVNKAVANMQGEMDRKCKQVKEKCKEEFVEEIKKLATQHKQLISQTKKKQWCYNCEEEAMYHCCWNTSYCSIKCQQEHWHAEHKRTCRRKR
Test: mean normalised NGS count of phage-displayed peptide after selection on bait (% of reads); baits are purified protein domains named by gene / domain / UniProt id / residues; peptides come from disordered regions of human proteins; higher = stronger enrichment / binding

[1] = replicate selections in which the peptide was seen: 4
[2] = replicate selections in which the peptide was seen: 6
[3] = replicate selections in which the peptide was seen: 3

Binder: PDAPPPPNIVDVRHDS [TTN 21103-21118 wt]
- mean normalised NGS count [1]: 12.2

Binder: TDQQPPNLISESAIPT [CREBBP 538-553 mut Q92793.L551I]
- mean normalised NGS count (replicate selections in which the peptide was seen: 5): 12.2

Binder: YDRMPTLERGRQDPAS [MLC1 12-27 wt]
- mean normalised NGS count [2]: 0.0783

Binder: ASAAGYEATMPTLPQN [PINK1 166-181 mut Q9BXM7.V170G]
- mean normalised NGS count [3]: 0.0321

Binder: YDRMPTLERGQQDPAS [MLC1 12-27 mut Q15049.R22Q]
- mean normalised NGS count [2]: 0.534

Binder: DQIQQPLTNQVMPDIV [DYRK1A 60-75 wt]
- mean normalised NGS count [3]: 0.0844

Binder: VTRNDVAPTLMSVPQY [CDH1 782-797 mut P12830.R796Q]
- mean normalised NGS count [3]: 0.0129

Binder: SDQSSDSPPILEAIRT [DNMT3B 28-43 wt]
- mean normalised NGS count [2]: 6.53

Binder: ASPAVYEATMPTLPQN [PINK1 166-181 mut Q9BXM7.A168P]
- mean normalised NGS count [3]: 0.315

Binder: PPHLTSAQDQDTISEL [CDT1 108-123 wt]
- mean normalised NGS count [2]: 0.162

Binder: SDKSSDSPPILEAIRT [DNMT3B 28-43 mut Q9UBC3.Q30K]
- mean normalised NGS count [2]: 0.584

Binder: HIPDLSSFTMPLLDGD [PRKAG2 36-51 mut Q9UGJ0.A44T]
- mean normalised NGS count [3]: 0.00653

Binder: PPNLISESALPTSLGA [CREBBP 542-557 wt]
- mean normalised NGS count [2]: 0.698

Binder: PPHLTSAQDHDTISEL [CDT1 108-123 mut Q9H211.Q117H]
- mean normalised NGS count [1]: 0.0171

Binder: PPASTAAGMPSLQHST [CREBBP 858-873 mut Q92793.T872S]
- mean normalised NGS count [3]: 0.0571

Binder: NVAFGQELGPPWLERV [ABCC6 710-725 mut O95255.D718G]
- mean normalised NGS count [2]: 14

Binder: AAGQPPHLTSAQDHDT [CDT1 104-119 mut Q9H211.Q117H]
- mean normalised NGS count [1]: 0.296

Binder: EELAYDRMPTLERGRQ [MLC1 8-23 wt]
- mean normalised NGS count [2]: 0.1

Binder: TIPQLTYDGHPASSPL [PIAS1 93-108 wt]
- mean normalised NGS count [3]: 0.0111

Binder: TDQQPPNLISESALPT [CREBBP 538-553 wt]
- mean normalised NGS count [2]: 0.434

Binder: EELAYDRMPTLERGQQ [MLC1 8-23 mut Q15049.R22Q]
- mean normalised NGS count [2]: 6.61

Binder: NVAFGQELDPPWLERV [ABCC6 710-725 wt]
- mean normalised NGS count [2]: 8.35

Binder: VLPNAVLPPSLDHVYV [KMT2B 1526-1541 mut Q9UMN6.A1541V]
- mean normalised NGS count [3]: 0.031

Binder: PPNLISESAIPTSLGA [CREBBP 542-557 mut Q92793.L551I]
- mean normalised NGS count [2]: 31.7
